# The source gives no read counts; variants with many changes may rest on few reads.
# B1: LINE1-full (parent)
# chain: UACGUAGGUGGUUUUCCCCUGAUAGUGCUAAGGGGGCCUGGAAGUUUGGACUGGGCAGAGCUCAACACAGCGUGGCAAAGUGGCUGUGGCUAGACUGCCUCUCUGGAUUCCUCGUCACUCAGCAGGGCAUCUCUGAGAGAAAUGCC
# Variants of: B1
# Assay: self-cleavage, relative activity (ratio to wild type); higher = more cleavage; in vitro, sequencing; the parent is a self-cleaving ribozyme
row,Variant,self-cleavage
1,UACGUAGGUGGUUUUCCCCUGAUAGUGCUAAGGGGGCCUGGGAGUUUGGACUGGGCGGAGCUCAACACAGCGUGGCAAAGUGGCUGUGGCUAGACUGCCUCUCUGGAUUCCUCGUCACUCAUCAGGGCAUCUCUGAGAGAAAUGCC,0.98
2,UACGUAGGUGGUUUUCCCCUGAUAGUGCUAAGGGGGCCUGGGAGUUUGGACUGGGCGGAGCUCAACACAGCGUGGCAAAGUGGCUGUGGCUAGACUGCCUCUCCGGAUUCCUCGUCACUCAGCAGGGCAUCUCUGAGAGAAAUGCC,2.42
3,UACGUAGGUGGUUUUCCCCUGAUAGUGCUAAGGGGGCCUGGGAGUUUGGACUGGGCUGAGCUCAACUCAGCGUGGCAAAGUGGCUGUGGCUAGACUGCCUCUCUGGAUUCCUCGUCACUCAGCAGGGCAUCUCUUAGAGAAAUGCC,0.03
4,UACGUAGGUGGUUUUCCCCUGAUAGUGCUAAGGGGGCCUGGGAGUUUGGACUGGGCUGAGCUCAACACAGCGUGGCGAAGUGGCUGUGGCUAGACUGCCUCUCUGGAUUCCUCGUCACUCAGCAGGGCUUCUCUGAGAGAAAUGCC,0.29
5,UACGUAGGUGGUUUUCCCCUGAUAGUGCUAAGGGGGCCUGGGAGUUUGGACUGGGCUGAGCUCAACACAGCGUGGUAAAGUGGCUGUGGCUAGACUGCCUCUCUGGAUUCCUCGUCACUCAGCAGGGCAUCUCUGAGAGAAAUGCC,0.17
6,UACGUAGGUGGUUUUCCCCUGAUAGUGCUAAGGGGGCCUGGGAGUUUGGACUGGGCUGAGCUCAACACAGCGUGGCAAAGUGGCUGUGGCUAGACUGCCUCCCUGGAUUCCUCGUCACUCAGCAGGGCAUCUCUGAGAGAAAUGCC,0.22
7,UACGUAGGUGGUUUUCCCCUGAUAGUGCUAAGGGGGCCUGGGAGUUUGGACUGGGCUGAGCUCAACACAGCGUGGCAAAGUGGCUGUGGCUAGACUGCCUCUCUGGAUUCCUCGUCACUCAGCAGGGCAACUCCGAGAGGAAUGCC,0
8,UACGUAGGUGGUUUUCCCCUGAUAGUGCUAAGGGGGCCUGGGAGUUUGGACUGGGCAGGGCUCAACACGGCGUGGCAAAGUGGCUGUGGCUAGACUGCCUCUCUGGAUUCCUCGUCACUCAGCAAGGCAUCUCUGAGAGAAAUGCC,0.09
9,UACGUAGGUGGUUUUCCCCUGAUAGUGCUAAGGGGGCCUGGGAGUUUGGACUGGGCAGGGCUCAACACAGCGUGGCAAAGUGGCUGUGGCUUGACUGCCUCUCUGGAUUCCCCGUCACUCAGCAGGGCAUCUCCGAGAGAAAUGCC,0
10,UACGUAGGUGGUUUUCCCCUGAUAGUGCUAAGGGGGCCUGGGAGUUUGGACUGGGCAGGGCUCAACACAGCGUGGCAAAGUGGCUGUGGCUAGACUGCCUCUCUGGAUUCCUCGUCACUCAGCGGGGCAUCUCUGAGAGAAAUGCC,0.05
11,UACGUAGGUGGUUUUCCCCUGAUAGUGCUAAGGGGGCCUGGGAGUUUGGACUGGGCAGGGCUCAACACAGCGUGGCAAAGUGGCUGUGGCUAGACUGCCUCUCUGGAUUCCUCGUCACUCAGCAGGGCGUCUCUGAGAGAAACGCC,0.07
12,UACGUAGGUGGUUUUCCCCUGAUAGUGCUAAGGGGGCCUGGGAGUUUGGACUGGGCAGGGCUCAACACAGCGUGGCAAAGUGGCUGUGGCUAGACUGCCUCUCUGGAUUCCUCGUCACCCAGCAGGGCAUCUCUGAGAGAAAUGCC,0.14
13,UACGUAGGUGGUUUUCCCCUGAUAGUGCUAAGGGGGCCUGGGAGUUUGGACUGGGCAGUGCUCAACACAGCGUGGCAAAGUGGCAGUGGCUAGACUGCCUCUCCGGAUUCCUCGUCACUCUGCAGGGCACCUCCGAGAGAAAUGCC,0
14,UACGUAGGUGGUUUUCCCCUGAUAGUGCUAAGGGGGCCUGGGAGUUUGGACUGGGCAGAGCUCGACACAGCGUGGCAAAGUGGCUGUGGCUAGACUGCCUCUCUGGAUUCCUCGUCACUCUGCAGGGCAUCUCUGAGAGAGAUGCC,0.42
15,UACGUAGGUGGUUUUCCCCUGAUAGUGCUAAGGGGGCCUGGGAGUUUGGACUGGGCAGAGCUCGACACAGCGUGGCAAAGUGGCUGUGGCUAGACUGCCUCUCUGGAUUCCUCGUCACUCAGCAGAGCAUCUCUGAGAGAAAUGCC,0.07
16,UACGUAGGUGGUUUUCCCCUGAUAGUGCUAAGGGGGCCUGGGAGUUUGGACUGGGCAGAGCUCUACACAGCGUGGCAAAGUGGCUGUGGCUAGACCGCCUCUCUGGAUUCCUCGUCACUCAGCAGGGCAUCUCUGAGAGAAAUGCC,0.12
17,UACGUAGGUGGUUUUCCCCUGAUAGUGCUAAGGGGGCCUGGGAGUUUGGACUGGGCAGAGCUCACCACAGCGUGGCAAAGUGGCUGUGGCUAGACUGCCUCUCUGGAUUCCUCGUCACUCAGCAGGGCAUCACUGAGAGAAAUGCC,0
18,UACGUAGGUGGUUUUCCCCUGAUAGUGCUAAGGGGGCCUGGGAGUUUGGACUGGGCAGAGCUCAGCACAGCGUGGCAGAGUGGCUGUAGCUAGACUGCCUCUCUGGAUUCCUCGUCACUCAGCAGGGCAUCUCUGAGAGAAAUGCC,0.1
19,UACGUAGGUGGUUUUCCCCUGAUAGUGCUAAGGGGGCCUGGGAGUUUGGACUGGGCAGAGCUCAGCACAGCGUGGCAAAGUGGCUGUGGCUGGACUGCCUCUCUGGAUUCCUCGUCACUCAGCAGGGCAUCUCUGAGGGAAAUGCC,0
20,UACGUAGGUGGUUUUCCCCUGAUAGUGCUAAGGGGGCCUGGGAGUUUGGACUGGGCAGAGCUCAACGCAGCGUGGCAAAGUGGCUGUGGCUAGGCUGCCUCUCUGGAUUCCUCGUCACUCAGCAGGGCAUCUCUGAGAGAGAUGCC,0.61

row,Variant,self-cleavage
1,UACGUAGGUGGUUUUCCCCUGAUAGUGCUAAGGGGGCCUGGGAGUUUGGACUGGGCAGAGCUCAACGCAGCGUGGUAAAGUGGCUGUGGCUAGACUGCCACUCUGGAUUCCUCGUCACUCAGCAGGGCAUCUCUGGGAGAGAUGCC,0.93
2,UACGUAGGUGGUUUUCCCCUGAUAGUGCUAAGGGGGCCUGGGAGUUUGGACUGGGCAGAGCUCAACUCAGCGUGGCCAAGUGGCUGUGGCUAGACUGCCUCUCUGGAUUCCUCGUCACUCAGCAGGGCAUCUCUGAGAGAAAUGCC,0.09
3,UACGUAGGUGGUUUUCCCCUGAUAGUGCUAAGGGGGCCUGGGAGUUUGGACUGGGCAGAGCUCAACUCAGCGUGGCAAAGUGGCUGUGGCUAGACUGCCCCUCUGGAUUCCUCGUCACUCAGCAGGGCAUCUCCGAGAGAAAUGCC,0.18
4,UACGUAGGUGGUUUUCCCCUGAUAGUGCUAAGGGGGCCUGGGAGUUUGGACUGGGCAGAGCUCAACUCAGCGUGGCAAAGUGGCUGUGGCUAGACUGCCUCUCUGGAUUCCUCGUCACUCAGCAGGGCAUCUCCGAGAGAAAUGCC,0.35
5,UACGUAGGUGGUUUUCCCCUGAUAGUGCUAAGGGGGCCUGGGAGUUUGGACUGGGCAGAGCUCAACACGGCGUGGCGAAGUGGCUGUGGCUAGACUGCCUCUCUGGAUUCCUCGUCACUCAGCAGGGCAUCUCUGAGAGAAAUGCC,0.92
6,UACGUAGGUGGUUUUCCCCUGAUAGUGCUAAGGGGGCCUGGGAGUUUGGACUGGGCAGAGCUCAACACUGCGUGGCAAAGUGGCUGUGGCUAGACUGCCUCUCAGGAUUCCUCGUCACUCAGCAGGGCAUCUCUGAGAGAAAUGCC,0.04
7,UACGUAGGUGGUUUUCCCCUGAUAGUGCUAAGGGGGCCUGGGAGUUUGGACUGGGCAGAGCUCAACACAGCGUGGCGAAGUGGCUGUGGCUUGACUGCCUCUCUGGAUUCCUCGUCACUCAGCAGGGCAUCUCUGAGAGAAAUGCC,2.3
8,UACGUAGGUGGUUUUCCCCUGAUAGUGCUAAGGGGGCCUGGGAGUUUGGACUGGGCAGAGCUCAACACAGCGUGGCGAAGUGGCUGUGGCUAGACUGCCUCUCUGGGUUCCUCGUCACUCAGCAGGGCAUCUCUGAGAGAAAUGCC,2.3
9,UACGUAGGUGGUUUUCCCCUGAUAGUGCUAAGGGGGCCUGGGAGUUUGGACUGGGCAGAGCUCAACACAGCGUGGCGAAGUGGCUGUGGCUAGACUGCCUCUCUGGAUUCCUCGUCACUCAGCAGGGCAUCUCUGAGAGAAGUGCC,2.34
10,UACGUAGGUGGUUUUCCCCUGAUAGUGCUAAGGGGGCCUGGGAGUUUGGACUGGGCAGAGCUCAACACAGCGUGGCGAAGUGGCUGUGGCUAGACUACCUCUCUGGAUUCCUCGUCACUCAGCAGGGCAUCUCUGAGAGAAAUGCC,0.17
11,UACGUAGGUGGUUUUCCCCUGAUAGUGCUAAGGGGGCCUGGGAGUUUGGACUGGGCAGAGCUCAACACAGCGUGGCGAAGUGGCUGCGGCUAGACUGCCUCUCUGGAUUCCUCGUCACUCAGCAGGGCAUCUCUGAGAGAAAUGCC,0
12,UACGUAGGUGGUUUUCCCCUGAUAGUGCUAAGGGGGCCUGGGAGUUUGGACUGGGCAGAGCUCAACACAGCGUGGCUAAGUGGCCGUGGCUAGACUGCCUCUCUGGAUUCCUCGUCACUCAGUAGGGCAUCUCUGAGAGAAAUGCC,0.11
13,UACGUAGGUGGUUUUCCCCUGAUAGUGCUAAGGGGGCCUGGGAGUUUGGACUGGGCAGAGCUCAACACAGCGUGGCAGAGUGGCUGUGGCUAGACUGCCUCUCUGGAUUCUUCGUCACUCAGCAGGGCAUCUCUGAGAGAAAUGCC,1.02
14,UACGUAGGUGGUUUUCCCCUGAUAGUGCUAAGGGGGCCUGGGAGUUUGGACUGGGCAGAGCUCAACACAGCGUGGCAGAGUGGCUGUGGCUAGACUGCCCCUCUGGAUUCCUCGUCAUUCAGCGGGGCAUCUCUGAGAGAAAUGCC,0
15,UACGUAGGUGGUUUUCCCCUGAUAGUGCUAAGGGGGCCUGGGAGUUUGGACUGGGCAGAGCUCAACACAGCGUGGCAGAGUGGCUGUGGCUAGACUGCCUCUCAGGAUUCCUCGUCACUCAGCAGGGCAUCUCUGAGUGAAAUGCC,1.07
16,UACGUAGGUGGUUUUCCCCUGAUAGUGCUAAGGGGGCCUGGGAGUUUGGACUGGGCAGAGCUCAACACAGCGUGGCAGAGUGGCUGUGGCUAGACUGCCUCUCUGGACUCCUCGCCACUCAGCAGGGCAUCUCUGAGAGAAAUGCC,1.84
17,UACGUAGGUGGUUUUCCCCUGAUAGUGCUAAGGGGGCCUGGGAGUUUGGACUGGGCAGAGCUCAACACAGCGUGGCAUGGUGGCUGUGGCUAGACUGCCUCUCUGGAUUCCUCGUCACUCAGCAGGGCAUCUCUGAGAGAAAUGCC,2.26
18,UACGUAGGUGGUUUUCCCCUGAUAGUGCUAAGGGGGCCUGGGAGUUUGGACUGGGCAGAGCUCAACACAGCGUGGCAAGGUGGCUGUGGCAAGACUGCCUCUCUGGAUUCCUCGUCACUCAGCAGGGCAUCUCUGAGAGAAAUGCC,0.77
19,UACGUAGGUGGUUUUCCCCUGAUAGUGCUAAGGGGGCCUGGGAGUUUGGACUGGGCAGAGCUCAACACAGCGUGGCAAGGUGGCUGUGGCUAGACUGCCUCUCUGGAUUCCACGUCACUCAGCAGGGCACCUCUGAGAGAGAUGCC,0.77

# Source: the RNAGym collection of RNA variant scans (doi:10.7554/elife.90254)
